In PMC10668032 one finds binding signal data, which are given here for 219 sequences.

This is one part of the list. At the low end of the ranking, values are background and their order means little.

For this test, the target named is SIX1-Q177R homeodomain (UniProt Q15475). The test is described as follows: universal protein binding microarray. Conditions: Universal all-10-mer PBM (8x60K, AMADID 030236), 300 nM GST-tagged protein, Alexa Fluor 488 anti-GST; buffer, salt, pH and temperature not stated; high values mean tight binding; most listed sequences are background and not binding sites; double strand, one strand shown.
With ACAACTTA, the binding signal is -0.128 E-score.
Then CTCTCCAC, with -0.0716 E-score; and AATTTACG, with -0.297 E-score; and ATATCTCG, with -0.275 E-score.
As to CCATAAGA, the binding signal was -0.0471 E-score.
AAAATGCC: the binding signal is -0.147 E-score.
Regarding AAAGCCTT, the binding signal was -0.256 E-score.
As for TTCCACAA, the binding signal was -0.0257 E-score.
As for CTTGTGTC, the binding signal was found to be 0.168 E-score.
Regarding CTTGAGGA, the binding signal was -0.138 E-score.
In the case of GACCAGTC, the binding signal was -0.22 E-score.
In the case of GATTACGA, the binding signal is -0.0295 E-score.
Then CACACGAA, with 0.217 E-score.
With AGTTTAGG, the binding signal is -0.0521 E-score.
CTAGCATA: the binding signal was -0.225 E-score.
As to GGCAATAA, the binding signal is -0.108 E-score.
For GTCCCCGA, the binding signal is 0.0267 E-score.
Then CGACAAGA, with -0.0968 E-score; and CTTATACC, with -0.0517 E-score; and CACCTAAA, with 0.207 E-score.
On to AACGGAGA, for which the binding signal was -0.0541 E-score.
Then CAGGTCTA, with -0.218 E-score.
For CCATCAGC, the binding signal is 0.11 E-score.
Take CTCGTTAC: the binding signal turned out to be 0.00123 E-score.
Consider GGTTTAAA, for which the binding signal was 0.12 E-score.
Then ACCGTACA, with 0.235 E-score; and TTCCGCAA, with -0.0173 E-score.
Then TAGAGAAA, with 0.0615 E-score.
Consider AGTGCGTA, for which the binding signal turned out to be 0.00653 E-score.
In the case of CACCATAA, the binding signal was determined as 0.303 E-score.
For CAAAGAGA, the binding signal was -0.203 E-score.
Take AGCCGTCC: the binding signal is -0.17 E-score.
Take AGAAGAGG: the binding signal is -0.131 E-score.
Regarding CCGTTCCG, the binding signal was -0.13 E-score.
As to AGGGATCG, the binding signal was found to be 0.216 E-score.
As to GGCATTTA, the binding signal was -0.0126 E-score.
In the case of CCTGGGAG, the binding signal amounted to 0.129 E-score.
CTAAGTCC: the binding signal is -0.22 E-score.
Then CACCTTTA, with 0.223 E-score.
As to AATTTCTC, the binding signal was -0.219 E-score.
Then CCGGAATC, with -0.0601 E-score; and GGGCCAAC, with 0.000965 E-score; and CAGACCTG, with -0.291 E-score.
For AATCGGTA, the binding signal turned out to be 0.0182 E-score.
As for GGAACCCA, the binding signal turned out to be 0.181 E-score.
In the case of AATCGACG, the binding signal was -0.213 E-score.
Then CCTGTCTA, with 0.0327 E-score.
For the sequence AATACCCC, the binding signal stood at 0.185 E-score.
For the sequence GATCCAGC, the binding signal was 0.0517 E-score.
CCCGGGCC: the binding signal was determined as 0.103 E-score.
Then TTCTCCAA, with -0.12 E-score; and CCCCCCGC, with 0.248 E-score; and GCAATAGA, with -0.0871 E-score.
Then AACTCCGA, with -0.042 E-score; and ACCGTCGA, with 0.0178 E-score.
CATCCGGA: the binding signal was 0.00453 E-score.
Regarding ACCTTCCA, the binding signal was 0.0566 E-score.
As for TAAATCGA, the binding signal was -0.163 E-score.
GCCTCTAC: the binding signal was -0.037 E-score.
As for CAATGGAA, the binding signal amounted to 0.04 E-score.
Then CCTTGTGC, with 0.037 E-score; and AAGAGGCC, with -0.323 E-score; and ACAATGCA, with -0.0864 E-score.
Then ACAGCACG, with 0.0102 E-score; and ACCCGCCC, with 0.243 E-score.
Consider GAGTGTAA, for which the binding signal turned out to be 0.42 E-score.
As to GCAATCGA, the binding signal is -0.0211 E-score.
Take AGGTTAGA: the binding signal was -0.208 E-score.
Turning to CCAGTGCA, the binding signal worked out at 0.135 E-score.
As to AGCTAATA, the binding signal was -0.0377 E-score.
With AAACCACC, the binding signal is -0.0529 E-score.
Turning to ACGACTCT, the binding signal was found to be 0.147 E-score.
As for AACAACGG, the binding signal was -0.042 E-score.
Then TCGTTCAA, with -0.0522 E-score; and GTCACGAA, with 0.128 E-score.
Then GCTCCATA, with -0.103 E-score; and GGAGATAA, with -0.287 E-score.
Then AAGTGATA, with -0.0681 E-score.
Turning to ATTTCTCA, the binding signal is -0.274 E-score.
Then CTATGACA, with 0.117 E-score; and ACATAGAA, with -0.0382 E-score; and CTTTGTAC, with -0.0684 E-score.
Take AACCAATT: the binding signal is -0.163 E-score.
As for AATTTGAA, the binding signal was -0.313 E-score.
CGATAGAA: the binding signal is -0.0273 E-score.
For GTAGCAGA, the binding signal is -0.18 E-score.
On to CAGGGCAA, for which the binding signal was -0.12 E-score.
Turning to CACACAGA, the binding signal amounted to 0.0748 E-score.
As to CGGGGTCA, the binding signal worked out at 0.269 E-score.
With ACGGTGAA, the binding signal is -0.0611 E-score.
For the sequence GATTCAAC, the binding signal was -0.022 E-score.
As to TACTGCAA, the binding signal is -0.00197 E-score.
Regarding AAGCTTCT, the binding signal was -0.317 E-score.
Regarding CCTCAACC, the binding signal was 0.0392 E-score.
On to CGTAAATC, for which the binding signal is -0.0319 E-score.
In the case of AGCCTTGG, the binding signal was -0.0656 E-score.
Then ACCGAGTA, with 0.124 E-score; and TCCATAGA, with -0.147 E-score.
Then ATTGATCG, with -0.0864 E-score; and CGTATCGC, with 0.094 E-score.
Turning to CACACAAA, the binding signal came to 0.0473 E-score.
Then CGCCACGC, with -0.125 E-score; and CGTTATTA, with -0.0247 E-score.
With AATCGGCA, the binding signal was -0.148 E-score.
Turning to GCCAGAAA, the binding signal is -0.148 E-score.
Then AAGCAACG, with -0.0351 E-score; and ACTCTCTC, with 0.0212 E-score.
Take CGTAATTA: the binding signal is -0.138 E-score.
In the case of TGCTTGAA, the binding signal was -0.046 E-score.
With GCGTTACC, the binding signal worked out at 0.143 E-score.
Take ACAGGGAG: the binding signal was found to be 0.0597 E-score.
Regarding CTCCTGCA, the binding signal was -0.0533 E-score.
As to AAGTTGCA, the binding signal came out at 0.0234 E-score.
In the case of CACATGAC, the binding signal was -0.0544 E-score.
As for CCGTTAAG, the binding signal was -0.0647 E-score.
With ACGAAAAG, the binding signal is -0.102 E-score.
With AAGGGTCG, the binding signal is 0.188 E-score.
Regarding ATTCCAAC, the binding signal was -0.113 E-score.
With CGCTGAGA, the binding signal is -0.0841 E-score.
For the sequence TAACGGTA, the binding signal was -0.13 E-score.
For the sequence CAGTTGCG, the binding signal was -0.0873 E-score.
Then AGAGGACA, with 0.148 E-score; and GAAATGTA, with -0.263 E-score; and CCTGCAGC, with -0.0407 E-score.
In the case of CTTGCACC, the binding signal was 0.166 E-score.
Then ACTATAAT, with 0.0185 E-score; and AGTGACCA, with -0.0304 E-score.
Regarding CTGGAGTC, the binding signal came out at 0.184 E-score.
With ATCTGTAG, the binding signal is -0.0884 E-score.
Then ACGGGGTC, with 0.214 E-score; and CACGACAA, with 0.0685 E-score.
In the case of AGTACAGC, the binding signal is -0.232 E-score.
For AGTTATTA, the binding signal was -0.00447 E-score.
With CAATCTGA, the binding signal is -0.224 E-score.
For the sequence CATTATTC, the binding signal is -0.0129 E-score.
Then CTCATGAC, with 0.113 E-score; and CCTACACC, with 0.482 E-score; and CCTGTTCC, with -0.0843 E-score.
With AAAGAACT, the binding signal is -0.245 E-score.
GGCATATA: the binding signal is 0.0529 E-score.
Then ATACTCCA, with 0.189 E-score; and GCAGGCGC, with -0.218 E-score.
In the case of ACCACTCG, the binding signal stood at 0.122 E-score.
Turning to GACTAGTA, the binding signal is -0.166 E-score.
Consider CAGCAACA, for which the binding signal is -0.0392 E-score.
On to AACGACCC, for which the binding signal came out at 0.0499 E-score.
For ACTGAAGG, the binding signal was -0.00662 E-score.
With AGCGGACA, the binding signal turned out to be 0.0943 E-score.
In the case of AATACCAA, the binding signal is -0.0576 E-score.
Consider TAAACTAA, for which the binding signal was -0.015 E-score.
GTAATACA: the binding signal is 0.105 E-score.
For ATCGTATG, the binding signal is -0.165 E-score.
In the case of GCCACACA, the binding signal came to 0.147 E-score.
Take AAGCACTT: the binding signal is -0.141 E-score.
Consider CAGCTCAC, for which the binding signal was -0.238 E-score.
Then GCTCATAA, with -0.267 E-score; and CTTGTCGA, with -0.0662 E-score.
Then CACGCTGG, with 0.159 E-score; and ACCGGGGA, with 0.149 E-score; and CCGACTAA, with 0.125 E-score.
For GTCCCTCA, the binding signal is -0.0613 E-score.
Then GAAGAAGA, with 0.0352 E-score; and AAGAGATC, with -0.0461 E-score; and CCACCATA, with -0.0846 E-score.
In the case of ACCGTTGA, the binding signal was determined as 0.0737 E-score.
With CGTGGGGA, the binding signal was found to be 0.0815 E-score.
Consider GGATGGTA, for which the binding signal stood at 0.133 E-score.
Then ACATGGTG, with 0.33 E-score; and TCCTCAGA, with -0.139 E-score.
On to GGCGGTCA, for which the binding signal is -0.176 E-score.
Turning to GTATCTCA, the binding signal was determined as 0.158 E-score.
As for AGGCTGTA, the binding signal was -0.038 E-score.
Regarding CACATATG, the binding signal came to 0.145 E-score.
For the sequence ACCTATTA, the binding signal is -0.0416 E-score.
Then AGGGTCAT, with 0.0915 E-score; and ATTGCTGA, with -0.106 E-score.
Then CATTTTCG, with -0.216 E-score; and CTGGAGCA, with -0.035 E-score; and ATGGGGCA, with -0.0582 E-score.
In the case of AACCACTG, the binding signal was -0.166 E-score.
For GTTGCACA, the binding signal was 0.13 E-score.
With AGACTGGC, the binding signal was -0.125 E-score.
Then TAACGATA, with -0.0377 E-score; and GAAGTCTA, with -0.0831 E-score.
Then CAGAGTGC, with 0.0429 E-score; and GACGGGGC, with -0.0461 E-score; and CTTAGGGC, with -0.0327 E-score.
In the case of AGTGTGCG, the binding signal came to 0.132 E-score.
As to CGTTGGCA, the binding signal is -0.11 E-score.
For the sequence CCAACCAG, the binding signal was -0.148 E-score.
Turning to GAGGTTAC, the binding signal amounted to 0.0402 E-score.
TCGCTTCA: the binding signal is -0.179 E-score.
Turning to AGACTGAC, the binding signal was -0.158 E-score.
On to CAGGCCGC, for which the binding signal was -0.24 E-score.
For the sequence AGCAATCA, the binding signal was -0.257 E-score.
Then GAACTCGA, with -0.00737 E-score; and AGTTTTCA, with -0.327 E-score.
ATCCCTTC: the binding signal is -0.0326 E-score.
Consider CGATGGCC, for which the binding signal was -0.338 E-score.
With ACTTTACG, the binding signal is -0.0217 E-score.
In the case of GCTGACCC, the binding signal worked out at 0.045 E-score.
As for GAACATGA, the binding signal is -0.0589 E-score.
As to ATCGATAC, the binding signal was 0.219 E-score.
Then ACTTGCAA, with -0.21 E-score; and CGGTGCTC, with 0.218 E-score.
As for CTAAGGTC, the binding signal is -0.0594 E-score.
As for TAGTGAAA, the binding signal is -0.0297 E-score.
For AATAGACT, the binding signal is -0.294 E-score.
Then GTAGCGGA, with -0.0703 E-score; and AGCCAGCA, with -0.0825 E-score.
In the case of ATGTATTA, the binding signal was -0.00617 E-score.
Regarding TACCGATA, the binding signal is -0.00915 E-score.
Then AAGCCGCC, with -0.166 E-score; and CGCAGCAC, with 0.0574 E-score; and CTGGTGGC, with -0.106 E-score.
In the case of CCAGTACA, the binding signal stood at 0.242 E-score.
For ACGAGACT, the binding signal is -0.196 E-score.
Then GAACTGTA, with -0.246 E-score.
Turning to AAGTATTA, the binding signal is -0.06 E-score.
